Measurements from the supplement of paper PMC8728848.
The list shows a part of the results.

Columns and labels:
Test in all cases: glycan array binding signal (z-score within array); higher = stronger binding
Conditions in all cases: glycan notation: IUPAC condensed, linker removed
[1] = molecular target: Fuc(a1-2)Gal(b1-4)GlcNAc(b1-3)Gal(b1-4)GlcNAc(b1-3)Gal(b1-4)GlcNAc
In short: (§1)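 Glycan array binding is given as a within-array Z-score, which can be read as non-binding when negative. The arrays, 3228 of them, came from the Consortium for Functional Glycomics database and were retained only where the protein sequence was available. Z-scores were averaged across arrays of the same protein sequence at different concentrations or buffers and across linkers.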

[2] = molecular target: Fuc(a1-2)Gal(b1-4)GlcNAc(b1-3)GalNAc
In short: as §1

[3] = molecular target: Fuc(a1-2)Gal(b1-4)GlcNAc(b1-3)[Fuc(a1-2)Gal(b1-4)GlcNAc(b1-6)]GalNAc
In short: as §1

[4] = molecular target: Fuc(a1-2)Gal(b1-4)GlcNAc(b1-6)GalNAc
In short: as §1

[5] = molecular target: Fuc(a1-2)Gal(b1-4)GlcNAc6S
In short: as §1

[6] = molecular target: Fuc(a1-2)Gal(b1-4)[Fuc(a1-3)]GlcNAc
In short: as §1

[7] = molecular target: Fuc(a1-2)Gal(b1-4)[Fuc(a1-3)]GlcNAc(b1-2)Man(a1-3)[Fuc(a1-2)Gal(b1-4)[Fuc(a1-3)]GlcNAc(b1-2)Man(a1-6)]Man(b1-4)GlcNAc(b1-4)GlcNAc
In short: as §1

[8] = molecular target: Fuc(a1-2)Gal(b1-4)[Fuc(a1-3)]GlcNAc(b1-2)Man(a1-6)[Fuc(a1-2)Gal(b1-4)[Fuc(a1-3)]GlcNAc(b1-2)Man(a1-3)]Man(b1-4)GlcNAc(b1-4)[Fuc(a1-6)]GlcNAc
In short: as §1

[9] = molecular target: Fuc(a1-2)Gal(b1-4)[Fuc(a1-3)]GlcNAc(b1-2)[Fuc(a1-2)Gal(b1-4)[Fuc(a1-3)]GlcNAc(b1-4)]Man(a1-3)[Fuc(a1-2)Gal(b1-4)[Fuc(a1-3)]GlcNAc(b1-2)Man(a1-6)]Man(b1-4)GlcNAc(b1-4)GlcNAc
In short: as §1

[10] = molecular target: Fuc(a1-2)Gal(b1-4)[Fuc(a1-3)]GlcNAc(b1-3)Gal(b1-4)[Fuc(a1-3)]GlcNAc
In short: as §1

[11] = molecular target: Fuc(a1-2)Gal(b1-4)[Fuc(a1-3)]GlcNAc(b1-3)Gal(b1-4)[Fuc(a1-3)]GlcNAc(b1-3)Gal(b1-4)[Fuc(a1-3)]GlcNAc
In short: as §1

[12] = molecular target: Fuc(a1-2)Gal(b1-4)[Fuc(a1-3)]GlcNAc(b1-3)GalNAc
In short: as §1

[13] = molecular target: Fuc(a1-2)Gal(b1-4)[Fuc(a1-3)]GlcNAc(b1-3)[Neu5Ac(a2-6)Gal(b1-4)GlcNAc(b1-6)]Gal(b1-4)Glc
In short: as §1

[14] = molecular target: Fuc(a1-2)Gal6S(b1-3)GlcNAc
In short: as §1

[15] = molecular target: Fuc(a1-2)Gal6S(b1-3)GlcNAc6S
In short: as §1

Fuc(a1-2)Gal6S(b1-4)Glc = molecular target: Fuc(a1-2)Gal6S(b1-4)Glc
In short: as §1

[16] = molecular target: Fuc(a1-2)Gal6S(b1-4)Glc6S
In short: as §1

[17] = molecular target: Fuc(a1-2)Gal6S(b1-4)GlcNAc
In short: as §1

Fuc(a1-2)[Gal(a1-3)]Gal = molecular target: Fuc(a1-2)[Gal(a1-3)]Gal
In short: as §1

[18] = molecular target: Fuc(a1-2)[Gal(a1-3)]Gal(b1-3)GalNAc
In short: as §1

[19] = molecular target: Fuc(a1-2)[Gal(a1-3)]Gal(b1-3)GlcNAc
In short: as §1

[20] = molecular target: Fuc(a1-2)[Gal(a1-3)]Gal(b1-3)GlcNAc(b1-2)Man(a1-3)[Fuc(a1-2)[Gal(a1-3)]Gal(b1-3)GlcNAc(b1-2)Man(a1-6)]Man(b1-4)GlcNAc(b1-4)GlcNAc
In short: as §1

[21] = molecular target: Fuc(a1-2)[Gal(a1-3)]Gal(b1-3)GlcNAc(b1-2)Man(a1-3)[Fuc(a1-2)[Gal(a1-3)]Gal(b1-3)GlcNAc(b1-2)Man(a1-6)]Man(b1-4)GlcNAc(b1-4)[Fuc(a1-6)]GlcNAc
In short: as §1

[22] = molecular target: Fuc(a1-2)[Gal(a1-3)]Gal(b1-3)GlcNAc(b1-3)GalNAc
In short: as §1

[23] = molecular target: Fuc(a1-2)[Gal(a1-3)]Gal(b1-4)Glc
In short: as §1

[24] = molecular target: Fuc(a1-2)[Gal(a1-3)]Gal(b1-4)GlcNAc
In short: as §1

[25] = molecular target: Fuc(a1-2)[Gal(a1-3)]Gal(b1-4)GlcNAc(b1-2)Man(a1-3)[Fuc(a1-2)[Gal(a1-3)]Gal(b1-4)GlcNAc(b1-2)Man(a1-6)]Man(b1-4)GlcNAc(b1-4)GlcNAc
In short: as §1

[26] = molecular target: Fuc(a1-2)[Gal(a1-3)]Gal(b1-4)GlcNAc(b1-2)Man(a1-3)[Fuc(a1-2)[Gal(a1-3)]Gal(b1-4)GlcNAc(b1-2)Man(a1-6)]Man(b1-4)GlcNAc(b1-4)[Fuc(a1-6)]GlcNAc
In short: as §1

[27] = molecular target: Fuc(a1-2)[Gal(a1-3)]Gal(b1-4)GlcNAc(b1-3)GalNAc
In short: as §1

[28] = molecular target: Fuc(a1-2)[Gal(a1-3)]Gal(b1-4)GlcNAc(b1-6)GalNAc
In short: as §1

[29] = molecular target: Fuc(a1-2)[Gal(a1-3)]Gal(b1-4)[Fuc(a1-3)]Glc
In short: as §1

[30] = molecular target: Fuc(a1-2)[Gal(a1-3)]Gal(b1-4)[Fuc(a1-3)]GlcNAc
In short: as §1

[31] = molecular target: Fuc(a1-2)[Gal(a1-3)]Gal(b1-4)[Fuc(a1-3)]GlcNAc(b1-3)GalNAc
In short: as §1

[32] = molecular target: Fuc(a1-2)[Gal(a1-4)]Gal(b1-4)GlcNAc
In short: as §1

[33] = molecular target: Fuc(a1-2)[GalNAc(a1-3)]Gal
In short: as §1

[34] = molecular target: Fuc(a1-2)[GalNAc(a1-3)]Gal(b1-3)GalNAc(a1-3)[Fuc(a1-2)]Gal(b1-4)GlcNAc
In short: as §1

[35] = molecular target: Fuc(a1-2)[GalNAc(a1-3)]Gal(b1-3)GlcNAc
In short: as §1

B1: Strep tagII-anxA1 (Homo sapiens), P04083 (protein)
chain: MAMVSEFLKQAWFIENEEQEYVQTVKSSKGGPGSAVSPYPTFNPSSDVAALHKAIMVKGVDEATIIDILTKRNNAQRQQIKAAYLQETGKPLDETLKKALTGHLEEVVLALLKTPAQFDADELRAAMKGLGTDEDTLIEILASRTNKEIRDINRVYREELKRDLAKDITSDTSGDFRNALLSLAKGDRSEDFGVNEDLADSDARALYEAGERRKGTDVNVFNTILTTRSYPQLRRVFQKYTKYSKHDMNKVLDLELKGDIEKCLTAIVKCATSKPAFFAEKLHQAMKGVGTRHKALIRIMVSRSEIDMNDIKAFYQKMYGISLCQAILDETKGDYEKILVALCGGN
- glycan array binding signal (z-score) [1]: -0.744
- glycan array binding signal (z-score) [2]: 0.297
- glycan array binding signal (z-score) [3]: 2.61
- glycan array binding signal (z-score) [4]: 1.01
- glycan array binding signal (z-score) [5]: -0.035
- glycan array binding signal (z-score) [6]: -0.35
- glycan array binding signal (z-score) [7]: 1.91
- glycan array binding signal (z-score) [8]: 3.12
- glycan array binding signal (z-score) [9]: 1.11
- glycan array binding signal (z-score) [10]: -0.652
- glycan array binding signal (z-score) [11]: 0.054
- glycan array binding signal (z-score) [12]: -0.317
- glycan array binding signal (z-score) [13]: 0.406
- glycan array binding signal (z-score) [14]: 0.062
- glycan array binding signal (z-score) [15]: 1.69
- glycan array binding signal (z-score) (Fuc(a1-2)Gal6S(b1-4)Glc): 0.539
- glycan array binding signal (z-score) [16]: 1.09
- glycan array binding signal (z-score) [17]: 0.61
- glycan array binding signal (z-score) (Fuc(a1-2)[Gal(a1-3)]Gal): -0.612
- glycan array binding signal (z-score) [18]: 1.68
- glycan array binding signal (z-score) [19]: 1.29
- glycan array binding signal (z-score) [20]: 1.29
- glycan array binding signal (z-score) [21]: 2.17
- glycan array binding signal (z-score) [22]: -0.324
- glycan array binding signal (z-score) [23]: -0.314
- glycan array binding signal (z-score) [24]: -0.317
- glycan array binding signal (z-score) [25]: 1.69
- glycan array binding signal (z-score) [26]: 0.081
- glycan array binding signal (z-score) [27]: -0.68
- glycan array binding signal (z-score) [28]: -0.738
- glycan array binding signal (z-score) [29]: -0.689
- glycan array binding signal (z-score) [30]: 0.368
- glycan array binding signal (z-score) [31]: -0.675
- glycan array binding signal (z-score) [32]: -0.484
- glycan array binding signal (z-score) [33]: -0.39
- glycan array binding signal (z-score) [34]: -0.615
- glycan array binding signal (z-score) [35]: 0.999
